The campaign covered roughly 390,000 compounds. About 930 (0.24%) were called active. The inconclusive results got no clear call from the source; some entries with a clear call stand among them for comparison. Calls come from the whole dose curve; as a rule, active = well fitted activation curve with a large enough effect; inconclusive = small, poorly fitted or top-dose-only effect; inactive = no such curve, though single readings can be large or run the other way. Potencies of inconclusive entries are doubtful fits and often do not repeat.
assay: qHTS for Suppressors of FUS Proteinopathy: Primary screen using FUS-linked yeast assay; note: nearly all actives have a fitted effect of over 55% in size;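 for growth rescue (activation): plate controls were DMSO vehicle for no effect and reference control for full effect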; details: S. cerevisiae FUS-expressing, OD600, 24 h; Potency: growth rescue; growth rescue (activation): at 76.6 µM (top of the series)
Outline: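 Absorbance at 600 nm, taken 24hr after compound addition, measured rescue of FUS-yeast growth at 30C. Induction used 2% galactose with seeding at OD 0.005. Controls: CP55940 from 92uM final, DMSO only.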
Potency is the fitted concentration of half-maximal effect; tags give direction and shape of the fitted curve.

SMILES	Potency	growth rescue (activation)
CC(=O)N[C@@H](Cc1c[nH]c2ccccc12)C(=O)OCc1cc(C(F)(F)F)cc(C(F)(F)F)c1	inconclusive: 12.6 µM [activator, partial curve, poor fit]	–
C[C@@H]1CN([C@@H](C)CO)C(=O)c2cc(NC(=O)C3CCCCC3)ccc2O[C@@H](C)CCCCO[C@H]1CN(C)S(=O)(=O)c1ccc(Cl)cc1	inconclusive: 20 µM [activator, partial curve]	–
O=C(NCc1ccc(C(=O)N2CCCC2)cc1)c1cccc(Br)c1	inactive	–
CC(C)CN1C(=O)[C@@]2(CC(=O)N(C)C2c2ccccc2)c2cc(-n3cc(CCCC#N)nn3)ccc21 (some centres undefined)	inactive	–
Cc1ccc[n+](CC(=O)Nc2nc3ccccc3s2)c1	inconclusive: 5.01 µM [activator, partial curve, poor fit]	–
O=C(CCn1c(=O)c2cccn2c2ccc(F)cc21)NCCc1ccccc1Cl	inconclusive: 22.4 µM [activator, partial curve, poor fit]	–
S=C(NCc1ccccc1)Nc1cccc2cnccc12	inactive	–
COC(=O)C1=C(C)N(Cc2ccco2)C(=O)N[C@H]1c1cccc(C(F)(F)F)c1	inconclusive: 14.1 µM [activator, partial curve]	–
COc1cc(C(Nc2ccc3c(c2)OCO3)C(=O)NC2CCCCC2)cc(OC)c1OC (centres undefined)	active: 17.8 µM	–
O=C1CCCC2=C1C(c1ccco1)Nc1ccc(C(=O)c3ccccc3)cc1N2 (centres undefined)	inconclusive: 50.1 µM [activator, single point]	–
COc1ccc(CNC(=O)c2cccc3c(-c4cccc(C(N)=O)c4)coc23)cc1OC	inconclusive: 28.2 µM [activator, single point]	–
Cc1ccc2c(c1)cc(CN(Cc1ccc3c(c1)OCO3)C(=O)c1cnccn1)c1nnnn12	inconclusive: 50.1 µM [activator, single point]	–
Cc1ccccc1CN1CCc2nc(Nc3ccc4c(c3)OCCO4)ncc2C1	inconclusive: 35.5 µM [activator, single point]	–
Cc1ccc(S(=O)(=O)Nc2cc(C(=O)Nc3cc(C)cc(C)c3)ccc2Cl)cc1	inconclusive: 11.2 µM [activator, partial curve]	–
O=c1oc2ccccc2n1CCn1c2ccccc2c2nc3ccccc3nc21	inactive	–
CCC(C)NC(=O)c1ccc2nc(-c3ccc(OC)c(OC)c3)c(-c3ccc(OC)c(OC)c3)nc2c1 (centres undefined)	inactive	–
CCOC(=O)[C@]12CCCC=C1N(Cc1ccc(Cl)cc1Cl)C(=O)[C@H](CC(=O)N1CCN(C(=O)c3ccco3)CC1)C2	active: 17.8 µM	–
Cc1sc(NC(=O)C2C3CCC(C3)C2C(=O)O)c(C(N)=O)c1-c1ccc(C(C)(C)C)cc1 (centres undefined)	inconclusive: 35.5 µM [activator, single point]	–
Cc1nc2nc(SCC(=O)NCc3ccccc3)nn2c(C)c1Cc1ccccc1Cl	inconclusive: 44.7 µM [activator, single point]	–
CCN(CC)c1ccc2cc(-c3nnc(-c4ccncc4)o3)c(=O)oc2c1	inactive	–
Cn1c2ccccc2c(=O)c2ccc(C#Cc3ccc(N)cc3)cc21	inconclusive: 28.2 µM [activator, partial curve, poor fit]	–
CN(C(=O)c1ccc(NC(=O)Cc2cccc(NC(=O)C3CCN(C(=O)c4ccccc4)CC3)c2)cc1)C1CCCC1	inconclusive: 35.5 µM [activator, single point]	–

SMILES	Potency	growth rescue (activation)
CNC(=O)CSc1nc2nc(C)cc(C)n2n1	–	inconclusive: 48.8% [activator]
O=C(Nc1c(-c2ccccc2)nc2ncccn12)c1ccccc1	inactive	–
O=C(c1ccc(=O)oc1)N1CCCc2ccccc21	inconclusive: 44.7 µM [activator, single point]	–
Cc1cccc(N2CCN(C(=O)Cc3cn(C)c4ccccc34)CC2)c1C	inconclusive: 31.6 µM [activator, single point]	–
COc1ccc(S(=O)(=O)NCCc2cn3ccsc3n2)cc1OC	inactive	–
O=C(NCc1ccccc1)OC1CC2CC1[C@H]1CCCCN1C2 (some centres undefined)	inactive	–
CCCNC(=O)c1cc2c(c(-c3cccc(-c4ccc(C#N)cc4)c3)n1)[C@@H](CCO)N(C(=O)CC)C2	inconclusive: 17.8 µM [activator, single point]	–
CCN1C(=O)[C@@H]2[C@@H](c3ccc(-c4ccc(Cl)c(Cl)c4)c(OC)c3)N3CCC[C@@]3(C(=O)OC)[C@@H]2C1=O	inconclusive: 12.6 µM [activator, partial curve, poor fit]	–
C=C1CCN([C@@H](Cc2ccccc2)C(=O)NCc2ccc(Cl)c(Cl)c2)S(=O)(=O)c2ccccc21	inconclusive: 25.1 µM [activator, single point]	–
Cc1cccc(C)c1OCC(=O)N(Cc1ccc(Cl)cc1)CC1CCCO1 (centres undefined)	inconclusive: 35.5 µM [activator, partial curve, poor fit]	–
COc1ccc(OCC(=O)Nc2cccc(NC(=O)COc3ccc(OC)cc3)n2)cc1	–	inconclusive: 76.3% [activator]
O=C(COC(=O)c1nc(Cl)ccc1Cl)Nc1ccc(Cl)cn1	inactive	–
Cn1c2ccccc2c2cc(C(=O)OCC(=O)N3CC(=O)Nc4ccccc43)sc21	inconclusive: 7.94 µM [activator, full curve, poor fit]	–
Cc1ccc(C(C#N)=Cc2ccc3c(c2)OCO3)cc1	inactive	–
COC(=O)[C@]12C[C@H](CC(=O)NCc3ccc(C)o3)C(=O)N(Cc3ccc(Cl)cc3Cl)C1=C[C@H](COCc1ccccc1)O[C@@H]2C	inconclusive: 15.8 µM [activator, partial curve, poor fit]	–
C[C@@H]1CCN(C2CC2)S(=O)(=O)c2c(cccc2N2CC[C@@H](N(C)C)C2)O1	inactive	–
CCC(=O)Nc1cc(C(=O)OC(C(=O)c2ccc(C)c(C)c2)c2ccccc2)ccc1C (centres undefined)	active: 10 µM	–
Cc1cc(C)cc(N(CCC(=O)Nc2nnc(C3CC3)s2)S(=O)(=O)c2ccc(Cl)cc2)c1	inconclusive: 11.2 µM [activator, single point]	–
COc1cc2c(C(=O)N3CCN(c4ccc(C)cc4)C(C)C3)cn(CC(C)C)c(=O)c2cc1OC (centres undefined)	inconclusive: 8.91 µM [activator, partial curve, poor fit]	–
C[C@H](CO)N1C[C@H](C)[C@@H](CN(C)S(=O)(=O)c2ccc(F)cc2)Oc2ccc(NS(=O)(=O)c3ccccc3)cc2C1=O	inconclusive: 28.2 µM [activator, single point]	–
COc1ccccc1CNC(=O)Cn1c(-c2cccs2)cc2cc(F)ccc21	inactive	–
Cn1c(=O)n(Cc2ccccc2)c(=O)c2c1nc1n2CCCN1CCc1ccccc1	inconclusive: 22.4 µM [activator, single point]	–

SMILES	Potency	growth rescue (activation)
CCCCCC(=O)c1c(C)[nH]c(C(=O)OCC)c1C	inactive	–
COC(=O)[C@]12C[C@H](CC(=O)NCC3CCCCC3)C(=O)N(CCc3ccc(OC)c(OC)c3)C1=C[C@H](C(C)C)O[C@@H]2C1CC1	inconclusive: 31.6 µM [activator, partial curve, poor fit]	–
Cc1ccnc(NC(=O)c2cccs2)c1	inconclusive: 11.2 µM [activator, single point]	–
CCOC(=O)C1=C(CN2CCN(c3ccccc3F)CC2)NC(=O)NC1c1ccc(OC)cc1 (centres undefined)	inactive	–
CCC(CO)Oc1cc(NCc2ccccc2O)c2ncn(C(C)C)c2c1 (centres undefined)	inactive	–
O=C(Nc1ccc(NS(=O)(=O)c2ccccc2)c(Cl)c1)c1ccccc1	inconclusive: 15.8 µM [activator, partial curve, poor fit]	–
O=C(OCC(=O)c1c[nH]c2ccccc12)c1ccco1	inactive	–
CCN(CC)S(=O)(=O)c1ccc2c(c1)nc(CCC(=O)Nc1ccc(N3CCOCC3)cc1)n2C	inconclusive: 56.2 µM [activator, partial curve, poor fit]	–
CC1C(=O)N(Cc2cn(Cc3ccco3)nn2)CCS(=O)(=O)N1Cc1ccc(-c2ccc(Cl)cc2)cc1 (centres undefined)	inconclusive: 31.6 µM [activator, single point]	–
CN(C)S(=O)(=O)Oc1ccccc1C(=O)Nc1cccc(C(F)(F)F)c1	inactive	–
O=C(COC(=O)C1CCN(S(=O)(=O)c2cccs2)CC1)c1cc2ccccc2o1	inconclusive: 28.2 µM [activator, single point]	–
O=C(NCc1ccc(C(F)(F)F)cc1)c1cccc2c(-c3ccc(F)c(F)c3)coc12	inactive	–
COc1ccc([C@@H]2CC=C(C(=O)O)[C@H](c3ccc(F)cc3)N2S(=O)(=O)c2ccccc2C)cc1	inconclusive: 28.2 µM [activator, single point]	–
CCNC(=O)c1cc2c(c(-c3cccc(-c4ccccc4F)c3)n1)[C@@H](CCO)N(C(=O)CC1CC1)C2	active: 17.8 µM	–
Cc1nn(-c2nc(-c3ccc(F)cc3)cc(C(F)(F)F)n2)c(C)c1Cl	inactive	–
O=C(NC1CCCCC1)c1cnn2c(C(F)(F)F)cc(-c3ccco3)nc12	inconclusive: 17.8 µM [activator, partial curve, poor fit]	–
CCN(C)C(=O)CN1C(=O)C2CCCCN2C(=O)c2ccccc21 (centres undefined)	inactive	–
CC(C)C[C@H](NC(=O)OC(C)(C)C)c1nnc(SCc2ccccc2)o1	inactive	–
CC(C)C1CCN(C(=O)C2CCC(=O)N(CCc3ccc(Cl)cc3)C2)CC1 (centres undefined)	inconclusive: 44.7 µM [activator, single point]	–
O=C(OC12CCCN(C1)/C(=C/c1ccccc1)C2)C1CCCCC1 (centres undefined)	inactive	–

Source: PubChem BioAssay AID1347120 (National Center for Advancing Translational Sciences (NCATS), 2019)
